# According to PubChem BioAssay AID1347073 (National Center for Advancing Translational Sciences (NCATS), 2019):
# Among all 45,000 compounds or so, about 200 (0.44%) were called active. Another 7% or so got no clear call; they are omitted. Calls come from the whole dose curve; as a rule, active = well fitted activation curve with a large enough effect; inconclusive = small, poorly fitted or top-dose-only effect; inactive = no such curve, though single readings can be large or run the other way. This is one part of the list.
# Assay: qHTS of TDP-43 Inhibitors: NCGC Sytravon Library Screen; note: 0% is about no effect; nearly all actives have a fitted effect of over 55% in size
# Conditions: yeast TDP-43 toxicity rescue, BacTiter-Glo growth, 24 h; series mostly up to 46.1 µM; growth rescue (activation): at the top concentration
# How it was run: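 TDP-43-expressing yeast, pregrown in raffinose, seeded at OD600 0.02 in galactose medium with compound for 24 hr at 30 deg C. Growth read by BacTiter-Glo luminescence, so rescue of toxicity appears as activation.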
row,SMILES,growth rescue (activation)
1,COc1ccc(C(=O)N/N=C/c2ccc(N3CCOCC3)o2)cc1OC,inactive: 9.77%
2,N#CC(=C(O)CN1CCN(c2ccccc2F)CC1)c1nc(-c2ccccc2)cs1,inactive: -6.33%
3,CCOC(=O)c1c(C)[nH]c(C)c1C(=O)COC(=O)c1ccc(Cl)nc1,inactive: 18.7%
4,O=C(O)c1ccc(Oc2c(C(F)(F)F)oc3cc(O)ccc3c2=O)cc1,inactive: -0.367%
5,COc1ccc(C2=NN(C(=O)c3cccnc3)C(c3ccccc3)C2)cc1 (centres undefined),inactive: 26.1%
6,CCOC(=O)Nc1ccc2c(c1)nc1n2CCN(CCOC)C1,inactive: -12.5%
7,NNc1nc2c(-c3cccc(C(F)(F)F)c3)nnn2c2ccccc12,inactive: 35.1%
8,COc1ccccc1C(C)NC(=O)CCOc1cccc(C)c1 (centres undefined),inactive: 8.86%
9,Fc1ccc(-n2nnc(-c3ccccc3Cl)n2)cc1,inactive: 10.3%
10,N#Cc1cccc(NC(=O)CCN2C(=O)C3CCCCC3C2=O)c1 (centres undefined),inactive: 11.3%
11,Cc1n[nH]c(C)c1CCC(=O)N/N=C/c1c(C)[nH]c2ccccc12,inactive: 17.5%
12,Cc1nn(C)cc1C(C(=O)NC1CCCCC1)N(C(=O)c1cnccn1)c1ccc(Oc2ccccc2)cc1 (centres undefined),inactive: 10.2%
13,Cc1ccc(S(=O)(=O)N2CCOCC2)cc1C(=O)N1CCC(Cc2ccccc2)CC1,inactive: 16.8%
14,Cn1cccc1/C=N/NC(=O)C12CC3CC(CC(C3)C1)C2,inactive: 16.3%
15,Cc1cccc(C)c1NC(=S)NCCc1ccccn1,inactive: -8.06%
16,COc1ccc(N2C(=O)CC(NNc3nc4ccccc4s3)C2=O)cc1 (centres undefined),inactive: 15.9%
17,COc1cc(C(=O)c2c(C)c(CCC#N)n3ccccc23)cc(OC)c1OC,inactive: -6.7%
18,CC(C)N(Cc1ccccc1)C(=O)/C=C/c1ccccc1[N+](=O)[O-],inactive: 3.75%
19,CC1CCc2cc(F)ccc2N1C(=O)CSc1nnc2c3cc(F)ccc3n(C)c2n1 (centres undefined),inactive: 3.96%
20,O=[N+]([O-])c1ccc(NC(=S)NCC(c2cccnc2)N2CCOCC2)cc1 (centres undefined),inactive: 2.85%
21,CNC(=O)c1ccc(N(Cc2ccccc2)S(C)(=O)=O)cc1,inactive: 15.5%
22,O=C(NC1CCCC1)C1CCN(C(=O)Nc2cccc(Cl)c2)CC1,inactive: 5.7%
23,C=CCOc1ccc(-c2nc3c(c(=O)[nH]c(=O)n3Cc3ccccc3)n2CCCOC)cc1,inactive: 15.7%
24,CCOC(=O)c1c(N)sn(-c2ccccc2)c1=S,inactive: 25.6%
25,COc1ccc(-n2ncc3c(=O)n(CC(=O)N(C(C)C)C(C)C)cnc32)cc1,inactive: 3.17%
26,Cc1cc2cc(C)c3nnc(SCc4ccccn4)n3c2cc1C,inactive: 15.9%
27,CCCCCCCCS(=O)CCC(=O)O (centres undefined),inactive: 0.258%

row,SMILES,growth rescue (activation)
1,NS(=O)(=O)c1cccc(NC(=O)CSc2nc3ccccc3c(=O)n2Cc2ccco2)c1,inactive: 16%
2,CCOC(=O)C1C(=O)NC(C)C1c1ccccc1 (centres undefined),inactive: 24.1%
3,COCCNC(=O)/C(C#N)=C/C(C)=C/c1ccccc1,inactive: 11.4%
4,Cc1cc(NC(=O)CSc2nnnn2-c2ccc(F)cc2)no1,inactive: -7.02%
5,COc1ccccc1NS(=O)(=O)c1cc(C(=O)N2CCCCCC2)ccc1C,inactive: -14%
6,CCCCN(C=O)c1c(CC)nc2ccc(C(=O)N3CCN(c4ccccc4)CC3)cn12,inactive: 6.81%
7,Nc1nc(-c2cc3ccccc3o2)cs1,inactive: 15%
8,CCOC(=O)c1[nH]c2ccc(OC)cc2c1NC(=O)c1ccccc1C(=O)O,inactive: 10.7%
9,Cc1ccc(NC(=O)CN2CCCC2)c2c1CC(C)(C)O2,inactive: 15.9%
10,COc1cc(/C=C/CN2CCC(C(=O)NC(c3ccc(F)cc3)c3ccc4ccccc4n3)CC2)ccc1OC(C)=O (centres undefined),inactive: -0.459%
11,COc1ccc(-c2ccc(CCC(=O)O)n2CC(=O)Nc2cccc(OC)c2)cc1,inactive: -6.62%
12,Cc1noc(C)c1-c1ccc(C(=O)NCC2CC2)c2occc12,inactive: 14.2%
13,CC1(C)C(=O)OC(/C=C\c2cccc([N+](=O)[O-])c2)C(C)(C)C1=O (centres undefined),inactive: 10.6%
14,COc1ccc(NC(=O)COC(=O)C2C3CC4OC(=O)C2C4C3)cc1 (centres undefined),inactive: 4.73%
15,Cn1c(CN2CCN(CCO)CC2)c(C#N)c2ccccc21,inactive: 1.6%
16,NCC(c1ccc(Cl)cc1Cl)c1c[nH]c2ccccc12 (centres undefined),inactive: 1.49%
17,CCCOc1ccc(N2CC(C(=O)NC3=NCCS3)CC2=O)cc1 (centres undefined),inactive: 8.62%
18,CN(Cc1ccccc1)C(=O)c1ccc2c(c1)S(=O)(=O)N=C1CCCCCN12,inactive: 8.74%
19,CC(C)C(NC(=O)c1c(F)cccc1F)C(=O)NC1CC(C)(C)NC(C)(C)C1 (centres undefined),inactive: 0.793%
20,COc1ccc(Cc2nc3ccc(C(=O)NCCn4cccn4)cc3o2)cc1,inactive: 13.6%
21,COc1ccc(NC(=S)Nc2cccc(Cl)c2Cl)cc1OC,inactive: 2.76%
22,CCN1CCc2c(sc(NC(=O)c3ccc(S(=O)(=O)N4CCOCC4)cc3)c2C(=O)OC)C1,inactive: -16%
23,COCCCC1CCN(C(=O)C2CCC(=O)N(CC3CCCCC3)C2)CC1 (centres undefined),inactive: 9.87%
24,Nc1nc(NCCOCCO)nc(NCc2ccccc2)c1[N+](=O)[O-],inactive: 0.247%
25,O=C(Nc1ccc(Cl)cc1)N1CCC(c2ccccc2)C1 (centres undefined),inactive: 19.4%
26,O=C(Nc1ccc(Br)cc1)c1cccc(N2C(=O)C3C4C=CC(C4)C3C2=O)c1 (centres undefined),inactive: 24.8%
27,Cc1cccc(C)c1NC(=O)C1CCN(C(=O)c2cccs2)CC1,inactive: 14.6%
